Each structure is given as a SMILES string. The campaign covered roughly 310,000 compounds. About 2,200 (0.71%) showed an effect of 50% or more. Effects have a minus sign here. The list shows a part of the results.

The results in this text go back to paper PMC4336329 (PLoS ONE, 2015).

The assay deals with human ether-à-go-go-related gene (hERG) potassium channel (human, UniProt Q12809). Kind of assay: primary screen, population patch clamp on CHO cells stably expressing hERG.
human ether-à-go-go-related gene (hERG) potassium channel, sequence (Q12809 whole entry, looked up): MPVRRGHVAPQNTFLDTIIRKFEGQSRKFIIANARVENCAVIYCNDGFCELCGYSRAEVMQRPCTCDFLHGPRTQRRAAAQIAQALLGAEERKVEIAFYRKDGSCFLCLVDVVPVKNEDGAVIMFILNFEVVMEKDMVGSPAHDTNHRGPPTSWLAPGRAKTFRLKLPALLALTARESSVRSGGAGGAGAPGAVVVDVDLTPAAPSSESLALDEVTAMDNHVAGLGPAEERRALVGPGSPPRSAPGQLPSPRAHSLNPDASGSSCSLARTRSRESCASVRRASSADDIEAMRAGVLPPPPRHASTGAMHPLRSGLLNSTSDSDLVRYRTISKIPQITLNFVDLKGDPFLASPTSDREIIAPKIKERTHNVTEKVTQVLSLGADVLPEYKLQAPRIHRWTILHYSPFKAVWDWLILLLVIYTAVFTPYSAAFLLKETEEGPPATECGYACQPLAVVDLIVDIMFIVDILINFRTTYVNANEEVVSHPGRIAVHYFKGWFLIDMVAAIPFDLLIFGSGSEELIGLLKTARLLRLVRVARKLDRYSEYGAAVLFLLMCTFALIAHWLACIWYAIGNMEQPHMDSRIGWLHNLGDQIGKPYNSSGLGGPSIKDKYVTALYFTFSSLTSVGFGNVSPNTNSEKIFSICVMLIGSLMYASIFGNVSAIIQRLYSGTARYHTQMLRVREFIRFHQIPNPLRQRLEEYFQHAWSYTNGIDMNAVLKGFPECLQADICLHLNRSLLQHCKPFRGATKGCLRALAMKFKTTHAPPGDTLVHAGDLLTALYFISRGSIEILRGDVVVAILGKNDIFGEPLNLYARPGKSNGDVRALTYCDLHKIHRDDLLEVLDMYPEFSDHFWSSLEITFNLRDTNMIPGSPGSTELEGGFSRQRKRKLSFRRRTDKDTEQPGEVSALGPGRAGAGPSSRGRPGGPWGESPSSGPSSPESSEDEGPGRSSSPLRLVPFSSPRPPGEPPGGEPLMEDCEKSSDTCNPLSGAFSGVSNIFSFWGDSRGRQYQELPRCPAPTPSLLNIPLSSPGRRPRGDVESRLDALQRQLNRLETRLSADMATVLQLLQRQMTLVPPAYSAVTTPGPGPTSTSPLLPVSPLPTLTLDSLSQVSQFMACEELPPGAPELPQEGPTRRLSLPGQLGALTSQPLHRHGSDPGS
Take `COc1ccc(-c2c3c(nc4sc5c(Cl)nc(C)nc5c24)CCC3)cc1`: the “hERG current change (%, negative = inhibition) at 1uM” value is 10.3%.
Under `CSc1nnc(-c2sccc2-n2cccc2)o1` stands 20%; under `O=C1C(=O)N(C2CCS(=O)(=O)C2)C(c2cccc(O)c2)/C1=C(/O)c1ccc(Cl)cc1` (stereo not drawn), 13.1%; under `O=C(OC(C(=O)NC1CCCCC1)c1ccccc1)c1ccco1` (stereo not drawn), 5.19%.
As to `O=C(NCc1cccc(Cl)c1)c1cc(=O)[nH]c2ccccc12`, the “hERG current change (%, negative = inhibition) at 1uM” value was 11.9%.
Regarding `O=C(Nc1c[nH]c(=O)[nH]c1=O)c1cc([N+](=O)[O-])cc([N+](=O)[O-])c1`, the “hERG current change (%, negative = inhibition) at 1uM” value came to 20.4%.
Under `N#Cc1ccccc1NC(=O)Nc1ccccc1` stands 2.39%; under `COc1ccc(-c2nnc(SCc3nc4ccccc4c(=O)[nH]3)o2)cc1`, 8.85%; under `Nc1nc(Nc2ccccc2)nc(N2CCOCC2)c1[N+](=O)[O-]`, 1.02%.
As for `COc1ccc(NC(=O)CN(C2CCCCC2)S(C)(=O)=O)cc1Cl`, the figure is -1.74%; as for `CC(C(=O)OCC(=O)c1cccc([N+](=O)[O-])c1)N1C(=O)C2C3CCC(C3)C2C1=O` (stereo not drawn), 11.7%; as for `CCOC(=O)c1c(C)oc2c1C(=O)c1ccccc1C2=O`, 6.86%.
For `CC(=O)CC(c1ccccc1[N+](=O)[O-])c1c(O)c2ccccc2oc1=O` (stereo not drawn), the “hERG current change (%, negative = inhibition) at 1uM” value is reported as 10.3%.
Turning to `O=S(=O)(Nc1cc(Cl)ccc1-n1cncn1)c1ccccc1Cl`, the “hERG current change (%, negative = inhibition) at 1uM” value is recorded as -7.45%.
Under `CC(=O)Nc1ccc(S(=O)(=O)N[C@@H](C)C(=O)OCC(=O)NC2CCCC2)cc1` stands -5.49%.
Under `CCOC(=O)C1(Cc2ccccc2C)CCCN(C(=O)CCn2nccc2C)C1` (stereo not drawn) stands 10.3%; under `O=Cc1ccc(-c2ccccc2OC(F)(F)F)o1`, 7.76%; under `CCc1nnc(NC(=O)CN2CCN(C(=O)c3ccccc3)CC2)s1`, 10.9%.
Under `CC1(C)C(C=C(Cl)Cl)C1C(=O)Nc1ccc(S(=O)(=O)Nc2ncccn2)cc1` (stereo not drawn) stands 13.2%; under `O=C1c2ccccc2C(=O)N1CCCCSc1nnc2c(Cl)cc(Cl)cn12`, -20.9%.
Take `CN(Cc1ccc(Cl)cc1)C(=O)c1ccc(S(=O)(=O)NCc2ccco2)cc1`: the “hERG current change (%, negative = inhibition) at 1uM” value came to 0.605%.
`O=c1[nH]c(C2CCCN(S(=O)(=O)c3ccccc3F)C2)nc2c1nnn2Cc1ccccc1Cl` (stereo not drawn): the “hERG current change (%, negative = inhibition) at 1uM” value amounted to 16.1%.
Under `CC(C)(C)NC(=O)COc1ccc2oc3c(c2c1)CCCC3` stands 15.3%; under `CC(=O)c1cnc2nc(SCc3ccccc3C)nn2c1C`, 14.5%.
As for `O=C(Nc1nnc(SCC(=O)N2CCOCC2)s1)c1ccccc1`, the figure is 7.6%.
Under `C#CCn1c(=O)cc(C)c2ccccc21` stands 8.52%.
Take `O=C1CN(C(=O)COC(=O)/C=C/c2ccco2)c2ccccc2N1`: the “hERG current change (%, negative = inhibition) at 1uM” value was 7.65%.
Under `Oc1ccc(/C=N/Nc2ccnc3cc(Cl)ccc23)c(O)c1` stands 15.9%; under `CC(C)(C)NC(=O)C(=O)NN=C1CCCCCC1`, 14%.
Under `COc1ccc(S(=O)(=O)N2CCC(C(=O)NCCC3=CCCCC3)CC2)cc1OC` stands 4.83%.
As for `CCNC(=S)N1CCN(c2cccc(C(F)(F)F)c2)CC1`, the figure is 15.2%.
For `CC(Oc1ccc2c(c1)oc(=O)c1ccccc12)C(=O)NCC1CCC(C(=O)O)CC1` (stereo not drawn), the “hERG current change (%, negative = inhibition) at 1uM” value is reported as 18.4%.
Under `CNS(=O)(=O)c1ccc2ccccc2c1` stands 11.7%; under `O.O=C([O-])c1ccn2c(C(=O)c3ccccc3)c(-c3ccccc3)cc2c1`, 11%; under `COC(=O)CSc1snnc1-c1ccc(F)cc1`, 4.32%.
Under `CCOc1ccc(N=C2NC(=O)SC2CC(=O)OC)cc1` (stereo not drawn) stands 6.47%.
As for `Cc1ccc(CN2CC(C(=O)Nc3cccc(S(=O)(=O)N4CCCCC4)c3)CC2=O)cc1` (stereo not drawn), the figure is 13.2%; as for `CCc1ccc2c(c1)c1nnc(NN)nc1n2C`, -0.333%.
For `CCOc1ccc(C2C(C(=O)c3cccs3)=C(O)C(=O)N2Cc2cccnc2)cc1` (stereo not drawn), the “hERG current change (%, negative = inhibition) at 1uM” value came out at 8.36%.
As for `O=C(Cc1c(F)cccc1Cl)OCN1C(=O)c2ccccc2C1=O`, the figure is 17.4%; as for `O=C(CCc1ccc(S(=O)(=O)NCCc2ccccc2)cc1)NCc1ccco1`, 6%.
Under `O=C(NCCN1CCOCC1)c1cccc(S(=O)(=O)N2CCCCCC2)c1` stands 8.71%; under `COc1cc(C2C(C(=O)c3cccs3)=C(O)C(=O)N2Cc2ccco2)cc(OC)c1OC` (stereo not drawn), 4%; under `COCCN1Cc2cccc(C(=O)Nc3ccc4c(c3)OCCO4)c2C1=O`, 2.72%.
Under `CC(C)(C)C1CCC(N2CCN(c3ccccc3)CC2)CC1` (stereo not drawn) stands 17.2%.
